The whole screen tested about 150,000 compounds, of which about 540 (0.36%) showed an effect of 50% or more. This is one part of the list.
These molecules were tested on Plasmodium falciparum (assay: Primary screen in NF54 nanoGlo assay, in single point, at 2uM, 72h; a lower Z score goes with more inhibition). Conditions: timepoint 72 hour.
Assay type: functional, Erythrocyte
With `CC(C1CC1)n1cc(NC(=O)N[C@H]2CCO[C@@H]2c2cnn(C)c2)cn1` (stereo not given in full) the “% Inhibition” value was -10% and the Z score was 1.33.
In the case of `CCCN1C=NS(=O)(=O)c2cc(C(=O)NCCC(C)C)ccc21`, the “% Inhibition” value is reported as -8% and the Z score is reported as 1.35.
For `Cc1ccnc(-n2cccc2CN2CCN(c3nccnc3C#N)CC2)c1`, the “% Inhibition” value was 2% and the Z score was -0.23.
In the case of `C[C@H]1CCCCN1C1CN(c2ncnc3c2CCC3)C1`, the “% Inhibition” value is reported as -15% and the Z score is reported as 2.1.
In the case of `CC(C)c1noc(N2CCC3CCC(C2)N3C(C)C)n1` (stereo not given), the “% Inhibition” value is reported as -7% and the Z score is reported as 0.8.
In the case of `COC(=O)CCN1C[C@H](OCc2cccc(OC)c2)CN(C(=O)Cn2ccc(C)n2)CC1=O`, the “% Inhibition” value is reported as 2% and the Z score is reported as -0.32.
For `COc1cc(-c2noc(-c3ccc(C)cc3)n2)ccc1OCC(=O)NC1CCCC1`, the “% Inhibition” value was -11% and the Z score was 2.04.
`CC1CCC(N2CC(C(=O)OCC3CCCCO3)CC2=O)CC1` (stereo not given) was tested, and the “% Inhibition” value was -4% and the Z score was 0.4.
With `Cc1n[nH]c(C)c1CC(=O)NC1CCCC1(C)CO` (stereo not given) the “% Inhibition” value was -1% and the Z score was 0.12.
`C=C(C)CS(=O)(=O)N1C[C@H](C)Oc2ccc(OC)cc21` was tested, and the “% Inhibition” value was 4% and the Z score was -0.68.
For `CCn1nccc1C(=O)N1CC2(C[C@H](N3CCOCC3)CO2)C1`, the “% Inhibition” value was -16% and the Z score was 2.42.
In the case of `CC1CC(Nc2cccc(COCCc3ccccc3)c2)C(=O)O1` (stereo not given), the “% Inhibition” value is reported as -5% and the Z score is reported as 0.5.
For `CCn1ccnc1CN1CCc2ccc(F)c(C(=O)O)c2C1`, the “% Inhibition” value was 3% and the Z score was -0.44.
For `CC(C)c1nc(-c2cc(-n3cnnn3)ccc2O)n(-c2ccccn2)n1`, the “% Inhibition” value was -2% and the Z score was 0.32.
For `O=S1(=O)CCC(c2nnc(N3CCCC3C3CCC3)n2CC2CCOC2)C1` (stereo not given), the “% Inhibition” value was -7% and the Z score was 1.04.
With `CCc1cnc(NCc2c[nH]nc2-c2cccnc2)s1` the “% Inhibition” value was 18% and the Z score was -1.57.
In the case of `CN1C(=O)C2(CCN(c3nc(C(N)=O)cs3)CC2)c2ccccc21`, the “% Inhibition” value is reported as 14% and the Z score is reported as -1.86.
For `O=C(N[C@H]1CCN(c2ccc(F)cc2F)C1)c1cccnc1`, the “% Inhibition” value was -4% and the Z score was 0.58.
In the case of `CCC(c1cccs1)N1C(=O)[C@H]2CN(S(=O)(=O)c3ccc(F)cc3F)C[C@H]2C1=O` (stereo not given in full), the “% Inhibition” value is reported as -7% and the Z score is reported as 0.81.
For `CC(=O)c1ccc(F)c(-c2cc(C)cc3c2OC(CNC(=O)C2CCCO2)C3)c1` (stereo not given), the “% Inhibition” value was -3% and the Z score was 0.44.
`Cc1ccc(C(=O)NC[C@H]2Cc3ccccc3O2)cn1` was tested, and the “% Inhibition” value was -14% and the Z score was 1.29.
For `COc1ccc(C2NC(C(=O)O)Cc3nc[nH]c32)cc1COc1ccccc1F` (stereo not given), the “% Inhibition” value was -11% and the Z score was 1.39.
`COCc1cccc(-c2ncnn2Cc2cccc(OC)c2)n1` was tested, and the “% Inhibition” value was 6% and the Z score was -0.82.
In the case of `Cc1ccc(-c2noc(N3CCOC4(CCOCC4)C3)n2)cc1`, the “% Inhibition” value is reported as 1% and the Z score is reported as -0.12.
For `O=C(c1ccccc1NS(=O)(=O)c1ccc(Cl)s1)N1CCN(C(c2ccccc2)c2ccccc2)CC1`, the “% Inhibition” value was -6% and the Z score was 1.
With `O=S(=O)(CC1(F)CC1)NCCc1ccc2c(c1)OCCO2` the “% Inhibition” value was -13% and the Z score was 1.69.
In the case of `COC(=O)CC(C)(C)CC(=O)N1CC(C)C(C)C1` (stereo not given), the “% Inhibition” value is reported as 3% and the Z score is reported as -0.53.
In the case of `COC(=O)c1noc2c(Cl)cccc12`, the “% Inhibition” value is reported as -31% and the Z score is reported as 3.09.
In the case of `Cc1nn(Cc2cccc3c2OCCO3)c(N)c1C#N`, the “% Inhibition” value is reported as -5% and the Z score is reported as 0.84.
`CN(C(=O)C(=O)Nc1ccnn1C)C1CCCC1Cc1ccccc1` (stereo not given) was tested, and the “% Inhibition” value was 0% and the Z score was -0.05.
With `O=C(N[C@@H]1COCC[C@@H]1OCC1CCC1)C1CCOCC1` the “% Inhibition” value was -16% and the Z score was 1.47.
With `COc1ccc(S(=O)(=O)NCc2cc(C3CC3)ncn2)cc1` the “% Inhibition” value was 8% and the Z score was -1.09.
With `CCc1nc(N2CCCN(C(=O)c3ccc(OC)cc3)CC2)c2cnn(-c3ccc(C)cc3)c2n1` the “% Inhibition” value was -9% and the Z score was 1.43.
For `CC[C@@]1(C)CC(=O)N(Cc2ncnn2C)C1=O`, the “% Inhibition” value was -14% and the Z score was 1.3.
For `Cn1cc(C(=O)N2CCc3nc(NC(=O)c4ccoc4)sc3C2)nn1`, the “% Inhibition” value was 2% and the Z score was -0.33.
In the case of `O=C(NCCc1c[nH]cn1)c1cccc(-n2nnc3cccnc32)c1`, the “% Inhibition” value is reported as -12% and the Z score is reported as 2.41.
`CCn1nc(CN2CCC[C@H](NC(=O)c3cccc(OC)c3OC)C2)c2c1CCOC2` was tested, and the “% Inhibition” value was -10% and the Z score was 0.88.
`Cc1ccc(C(N)=O)cc1NC(=O)C(F)(F)C(F)F` was tested, and the “% Inhibition” value was -2% and the Z score was 0.29.
With `OCc1ccc(-c2nccn2Cc2ccncn2)o1` the “% Inhibition” value was 2% and the Z score was -0.33.
`CCNc1ncc(CN2CCC(C(=O)NCc3ccccc3)CC2)cn1` was tested, and the “% Inhibition” value was -28% and the Z score was 2.51.
`O=C(Cn1ncc(=O)c2ccccc21)N1CCC[C@H]1c1ccncc1` was tested, and the “% Inhibition” value was -2% and the Z score was 0.2.
In the case of `O=S1(=O)CCC(Nc2nnc(-c3ccccc3)s2)CC1`, the “% Inhibition” value is reported as -8% and the Z score is reported as 1.14.
`Cc1cnn(CCN2CCC[C@H](n3cc(CO)nn3)C2)c1` was tested, and the “% Inhibition” value was 3% and the Z score was -0.56.
In the case of `C=CCN(CCO)S(=O)(=O)c1c(F)cccc1Cl`, the “% Inhibition” value is reported as -9% and the Z score is reported as 1.13.
In the case of `CC(C)CCn1cc(-c2cc(CO)ncc2F)cn1`, the “% Inhibition” value is reported as -6% and the Z score is reported as 1.04.
With `CO[C@@H](CS(=O)(=O)Nc1nn2c(=O)cc(C)nc2[nH]1)c1ccc(F)cc1` the “% Inhibition” value was -12% and the Z score was 2.16.
In the case of `Cc1ccccc1NC(=O)N1CCN(C(=O)c2nonc2N)CC1`, the “% Inhibition” value is reported as 36% and the Z score is reported as -4.83.
`O=C1CC[C@H](CCNCc2cc3c(cc2Cl)OCO3)N1Cc1cccc2ccccc12` was tested, and the “% Inhibition” value was -9% and the Z score was 1.56.
In the case of `COc1cc(Cl)cc(C(=O)N2CCC(n3cn[nH]c3=O)CC2)c1`, the “% Inhibition” value is reported as 12% and the Z score is reported as -1.71.
For `Cn1ncnc1NC(=O)N1CCC[C@]1(C)Cc1ccc(Cl)s1`, the “% Inhibition” value was 4% and the Z score was -0.55.
In the case of `CCc1ccc(-c2nc(C(C)(C)OC)no2)cc1S(C)(=O)=O`, the “% Inhibition” value is reported as 1% and the Z score is reported as -0.15.
For `CCO[C@@H](C)c1nccn1CC1CCC1`, the “% Inhibition” value was -1% and the Z score was 0.09.
`COc1cc(Nc2c(C(=O)N3CCOCC3)cnc3nc(C)ccc23)cc(OC)c1OC` was tested, and the “% Inhibition” value was -10% and the Z score was 1.59.
In the case of `Cc1ccc(C)c(CN2C(=O)N[C@@]3(CCCCc4ccccc43)C2=O)c1`, the “% Inhibition” value is reported as -6% and the Z score is reported as 1.37.
`CCC(=O)N1CCN(c2nc(C3CC3)nc(COC)c2Cc2cccc(C)c2)CC1` was tested, and the “% Inhibition” value was -7% and the Z score was 0.62.

From ChEMBL document CHEMBL4888484, “Replenishing the malaria drug discovery pipeline: Screening and hit evaluation of the MMV Hit Generation Library 1 (HGL1) against asexual blood stage Plasmodium falciparum ,using a nano luciferase reporter read-out” (2022)
